The values that follow come from patent US20240182582A1 (Janssen / Centocor, published 2024).

This experiment concerns the target T1, BCMA (UniProt Q02223 1-184, limits assumed).
T1 sequence (looked up): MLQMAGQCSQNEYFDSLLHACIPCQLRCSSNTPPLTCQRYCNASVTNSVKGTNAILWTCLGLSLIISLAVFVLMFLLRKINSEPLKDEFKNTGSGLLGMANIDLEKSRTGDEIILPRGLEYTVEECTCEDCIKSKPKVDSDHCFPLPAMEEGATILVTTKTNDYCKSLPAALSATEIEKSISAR
Put plainly: cell-based or functional assay.

B1: NG2BB21 (bispecific antibody, human IgG1, kappa)
heavy: EVQLVQSGAEVKKPGESLKISCKGSGYSFTSYWIGWVRQMPGKGLEWMGIIYPGDSYTRYSPSFQGQVTISADKSISTAYLQWSSLKASDTAMYYCARGGVSASGNYRALDYWGQGTLVTVSSASTKGPSVFPLAPSSKSTSGGTAALGCLVKDYFPEPVTVSWNSGALTSGVHTFPAVLQSSGLYSLSSVVTVPSSSLGTQTYICNVNHKPSNTKVDKKV[human IgG1 Fc skipped]GSEGKSSGSGSESKSTGGSEIVLTQSPGTLSLSPGERATLSCRASQSISSSFLTWYQQKPGQAPRLLIYGASSRATGIPDRFSGGGSGTDFTLTISRLEPEDFAVYYCQHYGSSPMYTFGQGTKLEIKGGSEGKSSGSGSESKSTGGS[about 100 residues skipped]DEGYSSGHYYGMDVWGQGTTVTVSS
light: [about 200 residues skipped]
On to B1, for which the “IC50 for BsAb cytotoxicity, H929/GFP target cells with PBMC effectors” value was 1.24 nM.
